The other results are listed elsewhere or left out.
These compounds were tested on S. aureus RN4220 (assay: growth inhibition call (relative growth <= 0.2)). Settings: 50 µM.

Growth inhibition call, inactive:
C[C@@H]1CN([C@@H](C)CO)C(=O)c2cccc(NS(=O)(=O)c3cn(C)cn3)c2O[C@H]1CN(C)Cc1ccncc1, C[C@H](CO)N1C[C@H](C)[C@H](CN(C)S(=O)(=O)c2cn(C)cn2)Oc2ncc(C#Cc3ccccc3)cc2C1=O, C[C@H]1CN([C@@H](C)CO)C(=O)Cc2cc(NC(=O)Cc3ccccc3)ccc2O[C@@H]1CN(C)S(C)(=O)=O, COc1cc(C(=O)OCCN2CCCN(CCOC(=O)c3cc(OC)c(OC)c(OC)c3)CC2)cc(OC)c1OC, O=C(NC1Cc2ccccc2C1)[C@@H]1[C@@H](CO)[C@@H]2Cn3c(cccc3=O)[C@@H]2N1C(=O)c1cnccn1, C[C@H]1CCCCO[C@@H](CN(C)Cc2ccncc2)[C@@H](C)CN([C@@H](C)CO)C(=O)c2cc(NC(=O)CCC(F)(F)F)ccc2O1, C[C@H](CO)N1C[C@H](C)[C@@H](CN(C)S(=O)(=O)c2cccs2)OCCCC[C@H](C)Oc2ccc(NC(=O)Cc3ccccc3)cc2C1=O, Nc1oncc1-c1ccc(Cl)cc1, CO[C@H]1CN(C)C(=O)c2cc(NC(=O)Nc3ccccc3)ccc2OC[C@@H](C)N(C(=O)CN(C)C)C[C@@H]1C, C[C@@H]1CCCCO[C@@H](CN(C)C(=O)NC2CCCCC2)[C@@H](C)CN([C@@H](C)CO)C(=O)c2cc(NC(=O)Nc3ccc4c(c3)OCO4)ccc2O1, CC(C)CC#Cc1ccc2c(c1)O[C@@H](CN(C)C(=O)c1cccnc1)[C@@H](C)CN([C@H](C)CO)S2(=O)=O, CSC(=N)NCCC[C@@H](N)C(=O)O, C[C@@H]1CN([C@@H](C)CO)C(=O)c2cc(NS(=O)(=O)c3cccs3)ccc2O[C@@H](C)CCCCO[C@@H]1CN(C)S(=O)(=O)c1cn(C)cn1, C[C@@H]1CN([C@@H](C)CO)C(=O)c2cccc(NC(=O)Nc3ccccc3)c2O[C@H]1CN(C)Cc1ccc(-c2ccccc2)cc1, C[C@@H]1CN([C@H](C)CO)C(=O)Cc2cc(NS(=O)(=O)c3ccc(F)cc3)ccc2O[C@H]1CN(C)S(=O)(=O)c1cccs1, C[C@H]1COC(=O)[C@@H](Cc2ccc(F)cc2)CC=CC[C@@H](CC(=O)N[C@H](CO)Cc2ccccc2)C(=O)N1, C[C@H]1CN([C@@H](C)CO)C(=O)c2cc(NS(=O)(=O)c3ccccc3)ccc2O[C@@H]1CN(C)Cc1ccc(Cl)c(Cl)c1, N#CCC(=O)N1CCSCC1, COc1nn(C)cc1C(=O)Nc1ccon1, Cc1noc(C)c1S(=O)(=O)N(C)C[C@@H]1OCCCC[C@@H](C)Oc2ccc(NC(=O)Nc3ccc(C(F)(F)F)cc3)cc2C(=O)N([C@H](C)CO)C[C@H]1C, C[C@H](CO)N1C[C@H](C)[C@@H](CN(C)Cc2ccccc2)Oc2ccc(NC(=O)CCCN(C)C)cc2CC1=O, C[C@@H]1CN([C@@H](C)CO)C(=O)c2cc(NC(=O)Cc3ccccc3)ccc2O[C@H]1CN(C)S(=O)(=O)c1ccccc1, CNC[C@@H]1Oc2c(NS(=O)(=O)c3cn(C)cn3)cccc2C(=O)N([C@H](C)CO)C[C@@H]1C, Cc1noc(C)c1NC(=O)Nc1ccc2c(c1)CC(=O)N([C@@H](C)CO)C[C@H](C)[C@@H](CN(C)S(=O)(=O)c1cccs1)O2, CO[C@@H]1CN(C)C(=O)c2cc(NC(=O)c3cnccn3)ccc2OC[C@@H](C)N(CCC(F)(F)F)C[C@H]1C, COc1ccc(C(=O)NCC#N)cc1, C[C@@H]1CN(S(=O)(=O)N2CCN(C(=O)c3[nH]nc4ccccc34)CC2)C[C@H](C)O1, C[C@H]1CN([C@@H](C)CO)C(=O)c2cc(NC(=O)Cc3cn(C)c4ccccc34)ccc2O[C@@H]1CN(C)S(C)(=O)=O, C[C@@H]1CN([C@@H](C)CO)S(=O)(=O)c2ccc(C3=CCCC3)cc2O[C@@H]1CN(C)C(=O)c1cnccn1, C[C@@H]1CN([C@@H](C)CO)C(=O)c2cc(C#C[C@@H](C)O)cnc2O[C@H]1CN(C)C(=O)CN1CCOCC1, OCC1c2ccccc2-c2ccccc21, C[C@@H]1CN([C@H](C)CO)C(=O)c2cc(NC(=O)Nc3ccccc3)ccc2O[C@@H](C)CCCCO[C@@H]1CN(C)Cc1ccc(C(=O)O)cc1, O=C(C[C@@H]1C[C@@H]2c3cc(NC(=O)NC4CCCC4)ccc3O[C@@H]2[C@H](CO)O1)NCc1ccc2c(c1)OCO2, C[C@@H]1CN([C@@H](C)CO)S(=O)(=O)c2ccc(C3=CCCCC3)cc2O[C@H]1CN(C)C(=O)C1CCOCC1, COc1ccc(CN(C)C[C@@H]2OCCCC[C@H](C)Oc3ccc(NC(=O)Nc4ccccc4)cc3C(=O)N([C@@H](C)CO)C[C@H]2C)cc1, CC(C)C#Cc1cnc2c(c1)C(=O)N([C@@H](C)CO)C[C@@H](C)[C@@H](CN(C)C(=O)c1ccc3c(c1)OCO3)O2, C[C@@H]1CN([C@H](C)CO)C(=O)c2cc(C#CC3CCCC3)cnc2O[C@H]1CN(C)S(=O)(=O)c1cccc(F)c1, COC(=O)C(CC#Cc1ccc2c(c1)[C@]1(C(=O)N2)[C@H](c2ccc(OCCO)cc2)N2[C@H](c3ccccc3)[C@H](c3ccccc3)OC(=O)[C@H]2[C@@H]1C(=O)Nc1nc2ccccc2s1)C(=O)OC, Cc1noc(C)c1S(=O)(=O)Nc1ccc2c(c1)CC(=O)N([C@H](C)CO)C[C@@H](C)[C@H](CN(C)C(=O)Nc1ccccc1)O2, COc1ccc(S(=O)(=O)Nc2cccc3c2O[C@H](CN(C)Cc2ccc(Oc4ccccc4)cc2)[C@@H](C)CN([C@@H](C)CO)C3=O)cc1
